Measurements from article PMC4336329 (PLoS ONE, 2015).
The whole screen tested about 310,000 compounds, of which about 2,200 (0.71%) showed an effect of 50% or more. Effects have a minus sign here. This is one part of the list.

Biological target: human ether-à-go-go-related gene (hERG) potassium channel (human, UniProt Q12809)
Experiment: primary screen, population patch clamp on CHO cells stably expressing hERG

Chain of human ether-à-go-go-related gene (hERG) potassium channel (Q12809 whole entry, looked up): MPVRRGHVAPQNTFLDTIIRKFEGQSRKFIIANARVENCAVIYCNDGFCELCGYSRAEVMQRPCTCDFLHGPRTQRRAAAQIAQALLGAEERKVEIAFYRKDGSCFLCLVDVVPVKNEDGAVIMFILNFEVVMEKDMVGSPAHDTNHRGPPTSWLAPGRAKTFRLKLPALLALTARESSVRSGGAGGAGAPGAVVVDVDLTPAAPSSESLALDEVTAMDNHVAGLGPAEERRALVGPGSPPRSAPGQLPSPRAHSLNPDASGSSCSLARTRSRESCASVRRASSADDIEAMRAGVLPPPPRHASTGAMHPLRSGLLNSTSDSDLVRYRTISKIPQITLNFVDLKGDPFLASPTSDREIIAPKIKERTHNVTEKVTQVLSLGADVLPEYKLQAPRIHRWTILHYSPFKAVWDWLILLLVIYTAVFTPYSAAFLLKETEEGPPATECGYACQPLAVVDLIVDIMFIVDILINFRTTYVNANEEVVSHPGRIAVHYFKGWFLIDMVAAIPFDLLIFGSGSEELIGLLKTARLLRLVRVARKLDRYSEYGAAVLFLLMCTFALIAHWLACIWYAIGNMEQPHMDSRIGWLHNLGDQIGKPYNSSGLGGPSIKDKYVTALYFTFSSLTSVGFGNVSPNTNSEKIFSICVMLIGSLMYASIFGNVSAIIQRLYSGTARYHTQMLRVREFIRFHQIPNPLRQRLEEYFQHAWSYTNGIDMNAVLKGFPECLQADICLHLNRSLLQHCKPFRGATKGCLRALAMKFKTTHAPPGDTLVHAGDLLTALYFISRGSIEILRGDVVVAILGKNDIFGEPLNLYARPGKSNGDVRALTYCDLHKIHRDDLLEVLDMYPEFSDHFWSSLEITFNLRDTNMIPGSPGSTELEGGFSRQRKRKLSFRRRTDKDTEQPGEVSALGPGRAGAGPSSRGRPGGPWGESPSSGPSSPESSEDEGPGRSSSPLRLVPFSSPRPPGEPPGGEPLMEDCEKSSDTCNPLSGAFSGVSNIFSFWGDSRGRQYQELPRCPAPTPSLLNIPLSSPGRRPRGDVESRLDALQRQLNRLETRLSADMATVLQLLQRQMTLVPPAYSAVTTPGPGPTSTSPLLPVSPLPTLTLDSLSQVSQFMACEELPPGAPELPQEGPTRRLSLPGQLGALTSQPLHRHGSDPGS

Structure (SMILES) | hERG current change (%, negative = inhibition) at 1uM [%]
COc1ccc(NC(=O)c2ccc(Oc3ncccn3)cc2)cc1 | 9.22
O=C(NCc1nnc2c3ccccc3c(-c3ccccc3)nn12)c1ccccc1Cl | 12
CCC(C)(C)C1CCc2[nH]nc(C(=O)O)c2C1 (stereo not shown) | 11.9
COc1ccc(-c2cc([C@H]3[C@@H]4C=CCC[C@@]4(C)C(=O)N3Cc3ccccc3)ccc2F)cc1OC | 14.2
CCN1CCN(CCOc2ccccc2OCc2ccccc2)CC1.O=C(O)C(=O)O | -32.7
Cc1nc(Cl)c(C#N)c2c1CCCC2 | 2.59
Cc1ccn2cc(CCNC(=O)C3CC=CCC3C(=O)O)nc2c1 (stereo not shown) | 5.6
CCN(CC)CC(=O)Nc1nn(-c2ccccc2)nc1C(N)=O | 7.18
COc1ccc(CCNC(=O)COc2ncnc3ccccc23)cc1OC | 9.68
CN(CC(=O)Nc1cccc(F)c1)CC(=O)N1CCCCC1 | 7.19
NC(=O)Nc1ccc(C(=O)OCC(=O)NC2CCCCC2)cc1 | 16.5
O=C(CNS(=O)(=O)c1ccc(Cl)cc1)OCC(=O)N1CCCc2ccccc21 | 6.61
CS(=O)(=O)N1CCN(c2ccc(NC(=O)c3ccc(Br)o3)cc2)CC1 | 5.8
CCOC(=O)c1ccc(NC(=O)N2CC(C)OC(C)C2)cc1 (stereo not shown) | 1.75
COc1ccc(C(=O)Nc2ccccc2-c2ccccc2)cc1Cl | 13.1
COCCNC(=O)c1onc(CSc2ccccc2F)c1C(=O)O | 8.6
Cc1oc2ccc(OS(C)(=O)=O)cc2c1C(=O)OC(C)C | 9.1
CCOC(=O)c1oc2ccccc2c1CSc1nnnn1-c1ccc(C)cc1 | 5.36
CCCC(=O)Nc1cccc(C(=O)Nc2ccccc2OCC)c1 | 5.99
CC(/C=C/c1ccc2c(c1)OCO2)=N/NC(=O)C1COc2ccccc2O1 (stereo not shown) | -0.811
Fc1ccc(C2=NOC(c3nnc(-c4ccccc4)o3)C2)cc1 (stereo not shown) | 5.5
Nc1ncnc(Nc2ccccc2Cl)n1 | 8.95

Structure (SMILES) | hERG current change (%, negative = inhibition) at 1uM [%]
CCOC(=O)N1CCC(NC(=O)CN2C(=O)CSc3ncccc32)CC1 | 3.82
CC(C)=CCc1c(O)cc(O)c2c(=O)c(O[C@@H]3O[C@@H](C)[C@H](O)[C@@H](O)[C@H]3O)c(-c3ccc(O)cc3)oc12 | 12.5
O=C(COc1ccccc1O)NCCN1CCOCC1 | 17.7
Cc1c(C#N)c(O)n(CCO)c(=O)c1N=Nc1ccc2c(c1)COC2=O | 10.4
COc1ccc(OCCC(=O)OCC(=O)Nc2ccc(S(=O)(=O)N3CCOCC3)cc2)cc1 | 74.8
CCCn1c(N)c(Sc2ccccc2)c(=O)n(CCC)c1=O | 2.48
CC(C)Nc1nnc(SCc2cc(=O)n3ccsc3n2)s1 | 13.6
COC(=O)CCC(=O)N1CCCC(CO)(Cc2ccccc2C)C1 (stereo not shown) | 6.02
Cc1cs/c(=N\N=C2CCCCC2)n1Cc1ccco1 | 18.2
Cc1nc2c(C(=O)NCc3ccco3)cnn2c(C)c1Cc1ccc(F)cc1Cl | 1.91
CCOC(=O)C(C)NC(=O)CCc1nnc2ccc(N3CCC(C)CC3)nn12 (stereo not shown) | 14.5
Cc1ccc(-n2c(O)c(/C=N/Nc3ccc(S(=O)(=O)N4CCOCC4)cc3[N+](=O)[O-])c3ccccc3c2=O)c(C)c1 | 8.62
COc1ccc(CCNC(=O)c2ccc(CSc3ccccc3)o2)cc1 | 1.49
O=C(/C=C/c1c(F)cccc1Cl)Nc1ccc(S(=O)(=O)Nc2ncccn2)cc1 | 14.1
O=C(NCc1cccc(Cl)c1)c1ccncc1 | 6.03
Cc1ccc2[nH]c3c(c2c1)CN(C(=O)CN1CCN(C(=O)c2ccco2)CC1)CC3 | 6.28
COc1cc(/C=C/C(C)=O)cc(OC)c1OC | 5.86
O=C1c2ccccc2NC(c2ccccc2)N1NS(=O)(=O)c1ccccc1 (stereo not shown) | 11.7
c1ccn2c(SCc3ccc4c(c3)OCO4)nnc2c1 | 12.4
CCn1c(C)[n+](CC)c2ccc(S(=O)(=O)N(C)C)cc21.[I-] | 11.6
O=C(O)c1cccc(-n2cccc2/C=C\[N+](=O)[O-])c1 | 14.1
Cc1cccc(C)c1-n1cccc1/C=C1/C(=N)N2C(=NC1=O)SN=C2S(C)(=O)=O | 5.28

Structure (SMILES) | hERG current change (%, negative = inhibition) at 1uM [%]
COc1ccc2nc(/C=N/NC(=O)[C@H](C)NC(=O)OC(C)(C)C)ccc2c1 | 12.6
O=C(NCCCCc1ccccc1)Nc1cccc(F)c1 | 4.51
COc1ccc(C(=O)/C=C2/c3ccccc3CC(C)(C)N2C)cc1OC.Cl | 13.5
CCN(Cc1ccccc1)S(=O)(=O)c1ccc(S(=O)(=O)N(Cc2ccccn2)Cc2ccco2)cc1 | 14.6
COc1ccc(NC(=O)C2CC(=O)N/C(=N/N=C/c3ccccc3)S2)cc1 (stereo not shown) | 7.17
O=C(Nc1ccc(OC(F)F)cc1)c1ncc(Cl)c(Cl)c1Cl | 7.69
CS(=O)(=O)N1CCCC(C(=O)NCc2ccccc2Cl)C1 (stereo not shown) | 8.35
COc1cccc2c(=O)c(SC(F)(F)C(F)C(F)(F)F)c(C)[nH]c12 (stereo not shown) | 5.16
COc1ccccc1NC(=O)C(C)OC(=O)/C=C/c1ccc2ccccc2n1 (stereo not shown) | 9.88
Cc1ccc2oc(-c3ccccc3)nc2c1 | 13
O=C1NC(=O)N(c2ccc(Br)cc2)C(=O)/C1=C/c1ccsc1 | 12.8
Brc1ccc(/C=N/Nc2ncnc3c2cnn3Cc2ccccc2)cc1 | 15.3
COc1ccc(C(CC(=O)N2CCC3(CC2)OCCO3)NS(=O)(=O)c2ccc(F)cc2)cc1 (stereo not shown) | 10
Cc1ccc(N2C(=O)N(CC(=O)Nc3ccc(F)c(F)c3)C(=O)C2C)cc1 (stereo not shown) | 5.09
N#CC1(NC(=O)COC(=O)CNC(=O)c2sc3ccccc3c2Cl)CCCCC1 | -6.89
COc1ccc(NC(=O)CCN2C(=O)c3ccccc3S2(=O)=O)c(OC)c1 | 6.77
NNc1ccc(S(=O)(=O)N2CCCCC2)cn1 | 19.4
CCc1ccc(CN2CCCC(C(=O)Nc3ccc(-c4cscn4)cc3)C2)o1 (stereo not shown) | 7.05
COc1ccc([C@H]2CC(=O)C=C(c3ccc4ncccc4c3)C2)cc1 | 0.85
Cc1nc2ncnn2c(C)c1CCC(=O)N1CCc2ccccc21 | -66.3
O=C(COc1ncnc2sccc12)N1CCc2ccccc2C1 | 5.88
COc1ccc2c(c1)nc(NCCCO)n2Cc1ccccc1 | 8.92

Structure (SMILES) | hERG current change (%, negative = inhibition) at 1uM [%]
Cc1cc(C)n(-c2cc(N3CCN(S(=O)(=O)c4ccc(Br)cc4)CC3)ccc2[N+](=O)[O-])n1 | 4.96
O=C(NCCc1ccc(Cl)cc1)c1ccc(=O)[nH]c1 | 10.8
COc1cccc(/C=C/C(=O)OCC(=O)Nc2ccc(Cl)cn2)c1 | 4.84
O=C(N/N=C/c1ccc[nH]1)c1cc(-c2ccc(Cl)cc2)nc2ccccc12 | 5.33
Cc1cccc(C)c1Nc1nnc(SC(C)C(=O)Nc2c(C)n(C)n(-c3ccccc3)c2=O)s1 (stereo not shown) | 1.11
CC(C)=NOc1nc(N(C)C)nc(N2CCOCC2)n1 | 11.8
COc1nc(NC(C)(C)C)nc(Oc2ccc(=O)n(-c3ccccc3)n2)n1 | -6.19
CCOC(=O)C1(Cc2cccc(Cl)c2)CCCN(C(=O)c2cc(C(C)C)nn2C)C1 (stereo not shown) | 14.2
C/C=C/c1ccc(OCC(=O)N2CCc3cc(OC)c(OC)cc3C2)c(OC)c1 | 8.64
CN(C(=O)C1CCC(=O)N(C2CC2)C1)C1CCCCC1 (stereo not shown) | 17.6
O=c1[nH]ncc(N/N=C/c2ccccc2)c1Cl | -9.12
COc1ccc(/C=N/NC(=O)c2cccc(OC(F)(F)C(F)F)c2)cc1O | 22.3
O=C(O)C[C@H]1c2ccccc2S(=O)(=O)N1C1CCCCC1 | 20.8
COC(=O)C1=C(C)C(c2ccc(OC)cc2)NC(=S)N1 (stereo not shown) | 14.2
O=S(=O)(NCc1cccnc1)c1cccc2cccnc12 | 4.95
CCCc1ncc(C(O)c2ccc(OC)cc2)n1C (stereo not shown) | -1.53
CN(C(=O)/C=C/c1ccccc1)C1CCS(=O)(=O)C1 (stereo not shown) | 2.19
CCC1CCCCN1c1ccc([N+](=O)[O-])cc1/C=N/NC(=O)Cn1c2ccccc2c(=O)c2ccccc21 (stereo not shown) | 5.27
O=C(Nc1cc(S(=O)(=O)N2CCOCC2)ccc1N1CCCC1)c1cccnc1Cl | 8.29
C=CCOc1ccccc1CN1CCC(C(=O)Nc2cccc(-c3ccn[nH]3)c2)CC1 | 36.9
COC(=O)C(O)(CC(=O)Nc1ccc(C)c(F)c1)C(F)(F)F (stereo not shown) | 14
Cn1nnnc1SCc1cc(=O)[nH]c2ccccc12 | 6.55
